# Source: the supplement of paper PMC8728848
# This is one part of the list.
# B1: AICL (Homo sapiens), Q92478 (protein)
# chain: MMTKHKKCFIIVGVLITTNIITLIVKLTRDSQSLCPYDWIGFQNKCYYFSKEEGDWNSSKYNCSTQHADLTIIDNIEEMNFLRRYKCSSDHWIGLKMAKNRTGQWVDGATFTKSFGMRGSEGCAYLSDDGAATARCYTERKWICRKRIH
# Columns and labels:
# Experiment in all cases: glycan array binding signal (z-score within array); higher = stronger binding
# Conditions in all cases: glycan notation: IUPAC condensed, linker removed
# [1] = target: Gal(b1-4)GlcNAc(b1-3)Gal(b1-4)Glc
# In short: (§1)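 Negative Z-scores can be read as non-binding. The Z-score is calculated within each array and then averaged across arrays of one protein sequence at different concentrations or buffers and across linkers. Arrays, 3228 in all, were curated from the Consortium for Functional Glycomics database and kept only where the protein sequence was available.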
# [2] = target: Gal(b1-4)GlcNAc(b1-3)Gal(b1-4)GlcNAc
# In short: as §1
# [3] = target: Gal(b1-4)GlcNAc(b1-3)Gal(b1-4)GlcNAc(b1-3)Gal(b1-4)GlcNAc
# In short: as §1
# [4] = target: Gal(b1-4)GlcNAc(b1-3)Gal(b1-4)[Fuc(a1-3)]GlcNAc(b1-3)Gal(b1-4)[Fuc(a1-3)]GlcNAc
# In short: as §1
# [5] = target: Gal(b1-4)GlcNAc(b1-3)GalNAc
# In short: as §1
# [6] = target: Gal(b1-4)GlcNAc(b1-3)[Gal(b1-4)GlcNAc(b1-6)]GalNAc
# In short: as §1
# [7] = target: Gal(b1-4)GlcNAc(b1-6)Gal(b1-4)GlcNAc(b1-6)GalNAc
# In short: as §1
# [8] = target: Gal(b1-4)GlcNAc(b1-6)GalNAc
# In short: as §1
# [9] = target: Gal(b1-4)GlcNAc(b1-6)[Gal(b1-3)]GalNAc
# In short: as §1
# Gal3S(b1-3)GalNAc = target: Gal3S(b1-3)GalNAc
# In short: as §1
# Gal3S(b1-3)GlcNAc = target: Gal3S(b1-3)GlcNAc
# In short: as §1
# [10] = target: Gal3S(b1-3)[Fuc(a1-4)]GlcNAc
# In short: as §1
# Gal3S(b1-4)Glc = target: Gal3S(b1-4)Glc
# In short: as §1
# Gal3S(b1-4)Glc6S = target: Gal3S(b1-4)Glc6S
# In short: as §1
# Gal3S(b1-4)GlcNAc = target: Gal3S(b1-4)GlcNAc
# In short: as §1
# Gal3S(b1-4)GlcNAc6S = target: Gal3S(b1-4)GlcNAc6S
# In short: as §1
# Gal3S6S(b1-4)GlcNAc = target: Gal3S6S(b1-4)GlcNAc
# In short: as §1
# Gal3S6S(b1-4)GlcNAc6S = target: Gal3S6S(b1-4)GlcNAc6S
# In short: as §1
# Gal4S(b1-4)GlcNAc = target: Gal4S(b1-4)GlcNAc
# In short: as §1
# Gal4S6S(b1-4)GlcNAc = target: Gal4S6S(b1-4)GlcNAc
# In short: as §1
# Gal6S(b1-4)Glc = target: Gal6S(b1-4)Glc
# In short: as §1
# Gal6S(b1-4)Glc6S = target: Gal6S(b1-4)Glc6S
# In short: as §1
# Gal6S(b1-4)GlcNAc = target: Gal6S(b1-4)GlcNAc
# In short: as §1
# GalNAc(a1-3)Gal = target: GalNAc(a1-3)Gal
# In short: as §1
# GalNAc(a1-3)GalNAc = target: GalNAc(a1-3)GalNAc
# In short: as §1
# [11] = target: GalNAc(b1-3)Gal(a1-4)Gal(b1-4)GlcNAc
# In short: as §1
# GalNAc(b1-3)GalNAc = target: GalNAc(b1-3)GalNAc
# In short: as §1
# GalNAc(b1-4)GlcNAc = target: GalNAc(b1-4)GlcNAc
# In short: as §1
# Glc(a1-4)Glc = target: Glc(a1-4)Glc
# In short: as §1
# Glc(a1-6)Glc(a1-6)Glc = target: Glc(a1-6)Glc(a1-6)Glc
# In short: as §1
# Glc(b1-4)Glc = target: Glc(b1-4)Glc
# In short: as §1
# Glc(b1-6)Glc = target: Glc(b1-6)Glc
# In short: as §1
# GlcA(b1-3)Gal = target: GlcA(b1-3)Gal
# In short: as §1
# GlcA(b1-6)Gal = target: GlcA(b1-6)Gal
# In short: as §1
# [12] = target: GlcNAc(a1-3)Gal(b1-4)GlcNAc
# In short: as §1
# [13] = target: GlcNAc(a1-6)Gal(b1-4)GlcNAc
# In short: as §1
# [14] = target: GlcNAc(b1-2)Gal(b1-3)GalNAc
# In short: as §1
# [15] = target: GlcNAc(b1-2)Man(a1-3)[GlcNAc(b1-2)Man(a1-6)]Man(b1-4)GlcNAc(b1-4)GlcNAc
# In short: as §1
# GlcNAc(b1-3)Gal = target: GlcNAc(b1-3)Gal
# In short: as §1
# [16] = target: GlcNAc(b1-3)Gal(b1-3)GalNAc
# In short: as §1
# GlcNAc(b1-3)Gal(b1-4)Glc = target: GlcNAc(b1-3)Gal(b1-4)Glc
# In short: as §1
binder,measurement,setting,value
B1,glycan array binding signal (z-score),[1],-0.422
same,glycan array binding signal (z-score),[2],-0.439
same,glycan array binding signal (z-score),[3],-0.36
same,glycan array binding signal (z-score),[4],-0.194
same,glycan array binding signal (z-score),[5],-0.489
same,glycan array binding signal (z-score),[6],-0.511
same,glycan array binding signal (z-score),[7],-0.135
same,glycan array binding signal (z-score),[8],-0.488
same,glycan array binding signal (z-score),[9],-0.394
same,glycan array binding signal (z-score),Gal3S(b1-3)GalNAc,-0.409
same,glycan array binding signal (z-score),Gal3S(b1-3)GlcNAc,-0.367
same,glycan array binding signal (z-score),[10],-0.245
same,glycan array binding signal (z-score),Gal3S(b1-4)Glc,-0.061
same,glycan array binding signal (z-score),Gal3S(b1-4)Glc6S,1.89
same,glycan array binding signal (z-score),Gal3S(b1-4)GlcNAc,-0.281
same,glycan array binding signal (z-score),Gal3S(b1-4)GlcNAc6S,1.18
same,glycan array binding signal (z-score),Gal3S6S(b1-4)GlcNAc,0.586
same,glycan array binding signal (z-score),Gal3S6S(b1-4)GlcNAc6S,5.26
same,glycan array binding signal (z-score),Gal4S(b1-4)GlcNAc,-0.344
same,glycan array binding signal (z-score),Gal4S6S(b1-4)GlcNAc,0.445
same,glycan array binding signal (z-score),Gal6S(b1-4)Glc,-0.142
same,glycan array binding signal (z-score),Gal6S(b1-4)Glc6S,1.15
same,glycan array binding signal (z-score),Gal6S(b1-4)GlcNAc,-0.369
same,glycan array binding signal (z-score),GalNAc(a1-3)Gal,-0.333
same,glycan array binding signal (z-score),GalNAc(a1-3)GalNAc,-0.423
same,glycan array binding signal (z-score),[11],-0.363
same,glycan array binding signal (z-score),GalNAc(b1-3)GalNAc,-0.439
same,glycan array binding signal (z-score),GalNAc(b1-4)GlcNAc,-0.322
same,glycan array binding signal (z-score),Glc(a1-4)Glc,-0.399
same,glycan array binding signal (z-score),Glc(a1-6)Glc(a1-6)Glc,-0.612
same,glycan array binding signal (z-score),Glc(b1-4)Glc,-0.32
same,glycan array binding signal (z-score),Glc(b1-6)Glc,-0.395
same,glycan array binding signal (z-score),GlcA(b1-3)Gal,5.65
same,glycan array binding signal (z-score),GlcA(b1-6)Gal,4.6
same,glycan array binding signal (z-score),[12],-0.404
same,glycan array binding signal (z-score),[13],-0.437
same,glycan array binding signal (z-score),[14],-0.44
same,glycan array binding signal (z-score),[15],0.226
same,glycan array binding signal (z-score),GlcNAc(b1-3)Gal,-0.329
same,glycan array binding signal (z-score),[16],-0.17
same,glycan array binding signal (z-score),GlcNAc(b1-3)Gal(b1-4)Glc,-0.588
